Laboratory results as given in the supplement of paper PMC9334596.
Values joined by “and” are separate entries in the source; they are usually repeats but may differ in a detail not shown here. Equal values may be shown once. The full ranking holds about 5,300 compounds; the median of “PER2::LUC luminescence relative to vehicle control” is about 0.96, and the highest 2% start at about 1.3. This is one part of the list.

Test system: mPer2Luc MEF
Experiment: PER2::LUC luminescence relative to vehicle control (fold of vehicle); higher = higher PER2::LUC reporter signal
Conditions: 10 µM
In short: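 In 384-well plates, ~3000 mPer2Luc reporter mouse embryonic fibroblasts per well were cultured in DMEM with 10% FBS at 37 °C and 5% CO2 for 48 h before compounds from commercial libraries were added at 10 μM. ONE-Glo luciferase readings were taken 24 h and 30 h after treatment. Each value is PER2::LUC luminescence given as fold of vehicle control.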

Row | Compound | PER2::LUC luminescence (time after treatment 24 h) | PER2::LUC luminescence (time after treatment 30 h)
1 | CCCCCCCCCCCCCC[C@@H](O)[C@@H](O)[C@@H](CO)NC(C)=O | 1.07 | 1.04
2 | NC(=O)c1cccc(N)c1 | 1.1 | 1.01
3 | CCCCC[C@H](O)/C=C/C=C\CCCCCCCC(=O)O | 0.991 | 0.9
4 | NC(=O)NS(=O)(=O)c1ccc(N)cc1 | 1.1 | 1.01 and 0.964
5 | O=C1CCCC(=O)C1C(=O)c1ccc(C(F)(F)F)cc1[N+](=O)[O-] | 1.15 | 1.06
6 | CC(=O)N(CC(O)CN(C(C)=O)c1c(I)c(C(=O)NCC(O)CO)c(I)c(C(=O)NCC(O)CO)c1I)c1c(I)c(C(=O)NCC(O)CO)c(I)c(C(=O)NCC(O)CO)c1I (stereo not given) | 0.831 | 0.729
7 | CN(C)Cc1ccc(S(=O)(=O)n2ccc(/C=C/C(=O)NO)c2)cc1 | 0.248 and 0.207 | 0.354 and 0.366
8 | Nc1ncnc2n[nH]c(Nc3ccc(F)cc3)c12 | 0.948 | 0.946
9 | CC[C@H](C)C[C@H](C)CCCCCCCCC(=O)N[C@H]1C[C@@H](O)[C@@H](NCCN)NC(=O)[C@@H]2[C@@H](O)CCN2C(=O)[C@H]([C@H](O)CCN)NC(=O)[C@H]([C@H](O)[C@@H](O)c2ccc(O)cc2)NC(=O)[C@@H]2C[C@@H](O)CN2C(=O)[C@H]([C@@H](C)O)NC1=O | 1.06 and 0.951 | 1.08 and 1
10 | c1ccc(CN(CC2=NCCN2)c2ccccc2)cc1 | 0.832 and 0.642 | 0.853 and 0.913
11 | c1nc(CC2CCNCC2)c[nH]1 | 0.32 | 0.4
12 | O=C(O)C1=CCCN(CCON=C(c2ccccc2)c2ccccc2)C1 | 0.849 | 0.974
13 | CN(C)CC/C=C1/c2ccccc2COc2ccc(CC(=O)O)cc21 | 1.08 | 0.965
14 | CCOc1ccc(Oc2ccc(OCc3cc(F)ccc3F)cc2)c(N)c1 | 1.03 | 0.887
15 | COc1cc(/C=C/C(=O)N2CCCCCCC2)cc(OC)c1OC | 0.996 | 1.1
16 | C=CC(C)(C)c1cc(/C=C\C(=O)c2ccc(O)cc2)c(OC)cc1O | 0.553 | 0.862
17 | Nc1cc(F)ccc1NC(=O)/C=C/c1cnn(C/C=C/c2ccccc2)c1 | 0.683 | 0.649
18 | Nc1nc(NC2CC2)c2ncn([C@H]3C=C[C@@H](CO)C3)c2n1 | 1.23 and 1.48 | 1.32 and 1.75
19 | COc1cc(OC)c2c(=O)c(-c3ccc4c(c3)OCO4)coc2c1 | 1.07 | 1.31
20 | O=C(COc1ccc(Cl)cc1)N1CCN(Cc2ccc3c(c2)OCO3)CC1 | 0.918 and 0.872 | 0.866 and 0.844
21 | N[C@@H](Cc1ccc(O)cc1)C(=O)O | 0.927 | 0.952
22 | O=c1c(O)cc([C@H]2Oc3cc(O)cc(O)c3C[C@H]2O)cc2c([C@H]3Oc4cc(O)cc(O)c4C[C@H]3O)cc(O)c(O)c12 | 0.912 | 0.856
23 | CN(Cc1cnc2nc(N)nc(N)c2n1)c1ccc(C(=O)N[C@@H](CCC(=O)O)C(=O)O)cc1 | 0.703 and 0.602 and 0.455 | 0.581 and 0.379 and 0.359
24 | CCOc1ccc2nc3cc(N)ccc3c(N)c2c1 | 0.921 and 0.814 | 0.826 and 0.806
25 | CCN(CC)CCNc1ccc(CO)c2sc3ccccc3c(=O)c12 | 0.27 | 0.659
26 | CN(C)c1ccc(O)c2c1C[C@H]1C[C@H]3[C@H](N(C)C)C(O)=C(C(N)=O)C(=O)[C@@]3(O)C(O)=C1C2=O | 1.08 | 1.22
27 | CC(Cc1ccc(O)c(O)c1)(NN)C(=O)O (stereo not given) | 1.21 | 0.964
28 | Cc1ccsc1/C=C/C1=NCCCN1C | 0.972 and 0.495 | 1.04 and 0.879

Row | Compound | PER2::LUC luminescence (time after treatment 24 h) | PER2::LUC luminescence (time after treatment 30 h)
29 | CCCCCCCCCCCCCCCCOP(=O)([O-])OCC[N+](C)(C)C | 0.8 | 0.989
30 | C[N+](C)(C)CCOC(=O)CCC(=O)OCC[N+](C)(C)C | 0.908 | 0.877
31 | CSc1ccc(OCc2ncc([N+](=O)[O-])n2C)cc1 | 1.41 | 1.31
32 | COc1cc(C(C)=O)ccc1O | 1.08 | 1.05
33 | CCN1CCc2nc(N)oc2CC1 | 0.941 | 0.924
34 | COc1cc(C=CC(=O)O)cc(OC)c1O | 0.896 | 0.883
35 | CC(C)CCCC(C)C1CCC2C3=CCC4CC(O)CCC4(C)C3CCC21C (stereo not given) | 0.933 | 0.934
36 | C=CCn1c(=O)c2c(nc(-c3ccc(S(=O)(=O)O)cc3)n2C)n(C)c1=O | 1.01 | 0.927
37 | C[C@]12CC[C@@H]3c4ccc(OS(=O)(=O)O)cc4CC[C@H]3[C@@H]1CCC2=O | 1.04 | 0.945 and 1.2
38 | Cc1ncc(Cl)cc1NCc1ccc(C(=O)N[C@@H](CC2CCCC2)C(=O)NC2CC2)s1 | 0.921 | 0.823
39 | COc1cc2c(CCNC(C)=O)c[nH]c2cc1Cl | 0.891 | 0.993
40 | CCCN(CCc1ccccc1)C1CCc2c(O)cccc2C1 (racemic) | 1.02 | 0.864
41 | COc1cccc(OC)c1C(=O)N[C@@H]1C(=O)N2[C@@H]1SC(C)(C)[C@@H]2C(=O)O | 0.867 | 0.823
42 | Cc1ccc(S(=O)(=O)NC(=O)NN2CCCCCC2)cc1 | 1.04 | 1.02
43 | CC(C)(C)CC(C)(C)c1ccc(O)c(Cc2ccc(Cl)cc2Cl)c1 | 1.03 | 0.93
44 | CN1CCN(c2c(F)cc3c(=O)c(C(=O)O)cn4c3c2OCN4C)CC1 | 1.04 | 1.03
45 | CC1c2ccccc2CN1CC1=NCCN1 (stereo not given) | 1.05 | 1.01
46 | CCN(CC)CCOC(=O)C(c1ccccc1)c1ccccc1 | 0.791 | 0.827
47 | OC(CCCN1CCCCC1)(c1ccccc1)c1ccccc1 | 0.74 | 0.919
48 | CCCCCCCCCCCCc1ccc(S(=O)(=O)Nc2nncs2)cc1 | 1.09 | 0.954
49 | CC(CCc1ccccn1)(CCc1ccccn1)C(=O)c1ccccc1 | 0.643 | 0.935
50 | C[C@H]1[C@H](C)CC[C@]2(C(=O)O)CC[C@]3(C)C(=CC[C@@H]4[C@@]5(C)C[C@@H](O)[C@H](O)[C@@](C)(CO)[C@@H]5CC[C@]43C)[C@H]12 | 1.02 | 0.996
51 | CC[N+](CC)(CC)CC(=O)Nc1c(C)cccc1C | 1.04 | 0.869
52 | O=c1cc(-c2ccc(O)cc2)oc2c([C@@H]3O[C@H](CO)[C@@H](O)[C@H](O)[C@H]3O)c(O)cc(O)c12 | 0.934 | 0.884
53 | CC(C)(N)C(=O)N[C@H](COCc1ccccc1)C(=O)N1CCC2(CC1)CN(S(C)(=O)=O)c1ccccc12 | 0.936 | 0.86
54 | CCN(c1cc(C#CCN2CCOCC2)cc(C(=O)NCc2c(C)cc(C)[nH]c2=O)c1C)[C@H]1CC[C@H](N(C)CCOC)CC1 | 1.05 | 1.12
55 | COc1cc(-c2ccc(=O)[nH]n2)ccc1OC(F)F | 0.97 | 0.924
